Consider two variants from the GPR68 mutational scans of Howard et al. (2025).

The chains are these.
B1: GPR68, Q15743 (parent)
chain: MGNITADNSSMSCTIDHTIHQTLAPVVYVTVLVVGFPANCLSLYFGYLQIKARNELGVYLCNLTVADLFYICSLPFWLQYVLQHDNWSHGDLSCQVCGILLYENIYISVGFLCCISVDRYLAVAHPFRFHQFRTLKAAVGVSVVIWAKELLTSIYFLMHEEVIEDENQHRVCFEHYPIQAWQRAINYYRFLVGFLFPICLLLASYQGILRAVRRSHGTQKSRKDQIQRLVLSTVVIFLACFLPYHVLLLVRSVWEASCDFAKGVFNAYHFSLLLTSFNCVADPVLYCFVSETTHRDLARLRGACLAFLTCSRTGRAREAYPLGAPEASGKSGAQGEEPELLTKLHPAFQTPNSPGSGGFPTGRLA

The variants in series [1] derive from B1. Put plainly: cAMP reporter score (Enrich2 score, wild type = 0); higher = more signal; HEK293T, FACS bins.
In series [2] the parent is B1. Put plainly: surface expression score (Enrich2 score, wild type = 0); higher = more signal; HEK293T, FACS bins.

The least precise scores are not listed. The source holds two more conditions with little spread; they are left out. Read del as a deletion of the residues named and ins as an insertion between two positions. For part of these data: How much ogerin was present is not stated here.

Turning to MGNITADNSSMSCTIDHTIHQTLAPVVYVTVLVVGFPANCLSLYFGYLQIKARNELGVYLCNLTVPDLFYICSLPFWLQYVLQHDNWSHGDLSCQVCGILLYENIYISVGFLCCISVDRYLAVAHPFRFHQFRTLKAAVGVSVVIWAKELLTSIYFLMHEEVIEDENQHRVCFEHYPIQAWQRAINYYRFLVGFLFPICLLLASYQGILRAVRRSHGTQKSRKDQIQRLVLSTVVIFLACFLPYHVLLLVRSVWEASCDFAKGVFNAYHFSLLLTSFNCVADPVLYCFVSETTHRDLARLRGACLAFLTCSRTGRAREAYPLGAPEASGKSGAQGEEPELLTKLHPAFQTPNSPGSGGFPTGRLA [A66P], the cAMP reporter score was -0.682 in series [1] (pH 5.5); -0.936 in series [1] (pH 6); -1.06 in series [1] (pH 6, modulator: ogerin); -2.09 in series [1] (pH 6.5, modulator: ogerin). The surface expression score in series [2] is -1.76.

Consider MGNITADNSSMSCTIDHTIHQTLAPVVYVTVLVVGFPANCLSLYFGYLQIKARNELGVYLCNLTVQDLFYICSLPFWLQYVLQHDNWSHGDLSCQVCGILLYENIYISVGFLCCISVDRYLAVAHPFRFHQFRTLKAAVGVSVVIWAKELLTSIYFLMHEEVIEDENQHRVCFEHYPIQAWQRAINYYRFLVGFLFPICLLLASYQGILRAVRRSHGTQKSRKDQIQRLVLSTVVIFLACFLPYHVLLLVRSVWEASCDFAKGVFNAYHFSLLLTSFNCVADPVLYCFVSETTHRDLARLRGACLAFLTCSRTGRAREAYPLGAPEASGKSGAQGEEPELLTKLHPAFQTPNSPGSGGFPTGRLA [A66Q], for which the cAMP reporter score was -1.91 in series [1] (pH 5.5); -1.61 in series [1] (pH 6, modulator: ogerin); -1.52 in series [1] (pH 6.5, modulator: ogerin). In addition, the surface expression score in series [2] is -1.2.
